# The list shows a part of the results.
# System: T1, C. trachomatis L2/434/Bu expressing GFP (CTL2-GFP)
# T1 construct: L2/434/Bu GFP intracellular growth in HeLa cells
# Set-up: species or system HeLa; C. trachomatis total inclusion area by high-content imaging, normalised to DMSO
# Details: total inclusion area; 28.5 h, 10 µM; inhibitor
# In short: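 After bulk GFP and resorufin fluorescence reads, cells were fixed, stained with Hoechst and imaged by high-content microscopy. Inclusion area and number (GFP) stood in for chlamydial growth, nuclei count (Hoechst) for host cell viability. MICs were derived as for the bulk readout.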
row,SMILES,% of control remaining
1,CC(C)NC(=O)CN1CCN(Cc2nc(-c3cccc(Cl)c3)no2)CC1 [CBK304369],67.1107
2,CN(C)C(=O)C(C)(C)Oc1cc(C(F)(F)F)n(C)n1 [CBK056980],55.7991
3,Cc1ccc(C)c(NC(=O)CCc2c(C)[nH]c3ncnn3c2=O)c1 [CBK304646],59.4904
4,O=S(=O)(c1ccccc1)n1ccc2c(Br)cccc21 [CBK002084],60.2823
5,O=[N+]([O-])c1ccccc1N/C(=N/S(=O)(=O)c1ccccc1)c1ccccc1 [CBK262336],107.329
6,O=C(Nc1cccnc1N1CCNCC1)c1cccnc1 [CBK029426T],106.016
7,CC1(C)CC2CC(C)(CN2Cc2c(O)ccc3cc(-c4nc(-c5ccc(Br)cc5)cs4)c(=O)oc23)C1 (stereo not drawn) [CBK263831],90.6819
8,O=C(CN1CCN(C(c2ccccc2)c2ccccc2)CC1)CN1C(=O)c2ccccc2C1=O [CBK261682],86.1913
9,OCc1ccc(-c2nccnc2NCc2cccs2)cc1 [CBK088689],95.3491
10,CN1CCc2c1nc1ccccc1c2NC(=O)CN1CCCCCC1 [CBK278298G],65.8775
11,CCOC(=O)N1CCC(NC(=O)N(Cc2cccnc2)Cc2ccc3c(c2)OCO3)CC1 [CBK158897],90.3164
12,O=C(NC1CCS(=O)(=O)C1)c1cnc2c(OC(F)(F)F)cccc2c1O (stereo not drawn) [CBK304323],105.444
13,OCCOc1cccc2cccnc12 [CBK001784],86.9255
14,COc1ccc(-c2ncc(Oc3cccc(NC(C)=O)c3)nc2N)c(OC)c1 [CBK145087],80.9914
15,COC(C)CN(C)C(=O)c1nnn(-c2ccc3ncccc3c2)c1C (stereo not drawn) [CBK304484],49.2802
16,CC(=O)N1CCC2(CCCC[C@H]3CN(CC(=O)N(C)C)CC[C@@H]3NC(=O)CNC2=O)CC1 [CBK292163],100.448
17,Cn1c(=O)n(C)c2cc(-c3nc4ccccc4c(=O)[nH]3)ccc21 [CBK287887],114.458
18,Cc1nc(C(F)(F)F)ccc1COC(=O)N1CCOCC1 [CBK200122],98.4369
19,Cc1cc(C)cc(Nc2c([N+](=O)[O-])nn(-c3cccc(Cl)c3)[n+]2[O-])c1 [CBK268254],92.3735
20,Cc1nnsc1[S+]([O-])c1ccc(Br)cc1 (stereo not drawn) [CBK012927],97.7526
21,O=C(O)CN1C(=O)C2CCC(c3ccccc3)CC2C1=O (stereo not drawn) [CBK286952],123.386
22,Cc1oc2c(CN(C)C)c(O)ccc2c(=O)c1-c1cnn(-c2ccccc2)c1 [CBK264496],126.472
23,CCOC(=O)Cc1csc(NC(=O)CSc2nc3cc4c(cc3cc2C)OCO4)n1 [CBK109112],80.766
24,c1ccc(COc2cccc(CNCCN3CCOCC3)c2)cc1 [CBK278226C],98.7746
25,O=C(NC(c1ccccc1)c1cccnc1)C1CCN(C(=O)CN2C(=O)c3ccccc3C2=O)CC1 (stereo not drawn) [CBK060515],77.97
26,Cc1ccc(NC(=O)CN2C(=O)c3ccccc3C2=O)c(C(=O)O)c1 [CBK262837],109.652

row,SMILES,% of control remaining
1,N#C/C(=C\c1ccc(C(=O)O)cc1)C(=O)NCC1CCCO1 (stereo not drawn) [CBK263228],34.5662
2,N#CCCN(Cc1ccco1)C(=O)c1ccc(NC2CC2)nc1 [CBK304922],27.3977
3,O=c1nc(-c2ccccc2Cl)oc2ccccc12 [CBK152263],130.877
4,O=C(COc1ccc(I)cc1)N/N=C/c1cccc([N+](=O)[O-])c1 [CBK262211],109.493
5,Cc1nn(C)c2nc(NCc3ccc(C(=O)N4CCCC4)cc3)sc12 [CBK307190],83.8944
6,Cc1nnc(-c2cc(CC(C)C)n(-c3cccc(C(=O)N4CC=CCC4)c3)n2)o1 [CBK114630],93.9379
7,CC1CN(c2nccn(CCOc3ccc(Br)cc3)c2=O)CCN1 (stereo not drawn) [CBK028596T],98.5031
8,COc1ccccc1-c1nnc(NC(=O)COc2ccccc2)o1 [CBK287590],104.689
9,CCC(CN(C(=O)C(N)CCCCN)c1ccc2c(c1)OCO2)c1ccccc1 (stereo not drawn) [CBK001083T],36.9117
10,O=C(O)CCCC(=O)Nc1cc(C(=O)O)ccc1Cl [CBK267907],92.2981
11,Cc1cc(C)c(COc2nccnc2OC2CCN(CCCC#N)CC2)c(C)c1 [CBK161575],73.6698
12,Cc1cc2c(cc1NC(=O)[C@@H]1C[C@@H]3C=C[C@H]1C3)n(C)c(=O)n2C [CBK281689],85.6229
13,CS(=O)(=O)N1C2CCC(C2)[C@H]1COc1ccc(F)cc1 (stereo partly drawn) [CBK285279],100.17
14,O=C(NCc1ccc2c(c1)OCO2)c1ccccc1CCc1ccccc1 [CBK268591],77.6156
15,Cc1cc(Cc2cnc(NC(=O)c3ccncc3)s2)ccc1Br [CBK298304],27.8344
16,CCN1CCN(S(=O)(=O)c2ccc(Br)cc2)CC1 [CBK100197],107.647
17,COc1ccc(-c2nnc(SCC(=O)O)n2C)cc1 [CBK287232],120.365
18,COc1cc([N+](=O)[O-])ccc1NC(=S)NCc1ccc(S(N)(=O)=O)cc1 [CBK267067],119.218
19,CC(Nc1cc(N2CCN(CCO)CC2)ccc1[N+](=O)[O-])c1ccc(Br)cc1 (stereo not drawn) [CBK041273],0.171
20,Cc1cc(C(=O)N(Cc2ccccc2)c2ccccc2)no1 [CBK268131],92.0598
21,CC(C)(C)c1cc(C(=O)NCc2ccccn2)n(Cc2ccc(Cl)cc2Cl)n1 [CBK107288],94.3972
22,Cc1ccccc1-c1noc(C(C)NC(=O)C2(Cn3ccnc3)CC2)n1 (stereo not drawn) [CBK306684],25.4084
23,O=C(Nc1cc(Oc2cccnc2)cc([N+](=O)[O-])c1)c1sc2ccccc2c1Cl [CBK300485],77.9966
24,Cc1ccc(S(=O)(=O)Nc2ccc3c(c2)CC(=O)N3)cc1 [CBK287657],91.501
25,CC(C)(C)C1=CC2=NC3(CCS(=O)(=O)CC3)[C@@H]3C[C@@H](O)[C@@H](O)[C@@H]3N2O1 [CBK303247],107.95
